Experimental data reported in publication PMC4336329 (PLoS ONE, 2015).
The whole screen tested about 310,000 compounds, of which about 14,000 (4.5%) showed an effect of 50% or more. Effects have a minus sign here. The list shows a part of the results.

molecular target: human ether-à-go-go-related gene (hERG) potassium channel (human, UniProt Q12809); test: primary screen, population patch clamp on CHO cells stably expressing hERG
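Note: peak tail current of the secondary pulse compared with the same well before compound.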

Chain of human ether-à-go-go-related gene (hERG) potassium channel (Q12809 whole entry, looked up): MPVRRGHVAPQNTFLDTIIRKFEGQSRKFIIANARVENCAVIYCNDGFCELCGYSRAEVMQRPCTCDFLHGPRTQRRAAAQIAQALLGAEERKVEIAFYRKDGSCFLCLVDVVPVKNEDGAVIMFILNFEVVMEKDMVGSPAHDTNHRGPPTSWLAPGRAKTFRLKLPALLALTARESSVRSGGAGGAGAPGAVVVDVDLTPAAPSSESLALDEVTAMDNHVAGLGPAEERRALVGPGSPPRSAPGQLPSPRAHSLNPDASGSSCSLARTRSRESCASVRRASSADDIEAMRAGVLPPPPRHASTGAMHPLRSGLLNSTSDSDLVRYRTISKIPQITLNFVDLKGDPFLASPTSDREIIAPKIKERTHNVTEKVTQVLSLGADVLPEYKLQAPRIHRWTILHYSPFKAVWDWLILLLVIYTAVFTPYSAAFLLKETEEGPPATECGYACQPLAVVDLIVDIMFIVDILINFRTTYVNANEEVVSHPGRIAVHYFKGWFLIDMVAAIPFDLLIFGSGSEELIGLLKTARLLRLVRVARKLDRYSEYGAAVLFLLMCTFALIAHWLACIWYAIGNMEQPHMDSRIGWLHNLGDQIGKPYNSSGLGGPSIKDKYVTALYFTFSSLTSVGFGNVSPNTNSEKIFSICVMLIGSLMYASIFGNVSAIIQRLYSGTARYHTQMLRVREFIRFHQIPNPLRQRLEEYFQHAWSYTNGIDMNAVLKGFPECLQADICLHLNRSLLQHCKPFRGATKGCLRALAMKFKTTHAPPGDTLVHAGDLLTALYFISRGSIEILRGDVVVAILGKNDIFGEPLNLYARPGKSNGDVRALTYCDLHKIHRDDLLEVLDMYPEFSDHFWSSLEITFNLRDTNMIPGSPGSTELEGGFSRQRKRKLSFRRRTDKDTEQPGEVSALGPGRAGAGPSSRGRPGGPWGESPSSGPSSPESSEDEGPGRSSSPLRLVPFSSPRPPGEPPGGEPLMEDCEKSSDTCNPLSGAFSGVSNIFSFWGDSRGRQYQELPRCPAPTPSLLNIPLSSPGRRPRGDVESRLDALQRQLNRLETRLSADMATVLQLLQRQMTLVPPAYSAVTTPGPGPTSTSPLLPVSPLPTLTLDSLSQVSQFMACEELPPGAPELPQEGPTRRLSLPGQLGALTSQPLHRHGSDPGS

Row | Structure (SMILES) | hERG current change (%, negative = inhibition) at 10uM
1 | O=C(CCNS(=O)(=O)c1ccccc1)OCC(=O)c1ccc(Cl)cc1 | -30%
2 | CCCCOc1ccc(-c2nc(/C=N/c3nccs3)c(O)o2)cc1 | 28.8%
3 | COc1ccc(S(N)(=O)=O)cc1C(=O)NCCCN1CCN(c2ccccc2OC)CC1.CS(=O)(=O)O | 2.27%
4 | Cc1ccccc1OC(C)C(=O)Nc1ccc2c(c1)OCO2 (stereo not drawn) | -5.65%
5 | Cc1cc(C)cc(N2C(=O)CC(n3nc(C)cc3C)C2=O)c1 (stereo not drawn) | 8.22%
6 | Cc1ccc(NC(=O)c2ccc(-n3cncn3)c([N+](=O)[O-])c2)cc1F | -18.1%
7 | CCN1CCN(S(=O)(=O)c2ccc(Cl)c(C(=O)N(C)Cc3ccc(Cl)cc3Cl)c2)CC1 | -9.34%
8 | NC(=O)N/N=C/c1c(F)c(F)c(F)c(F)c1F | 15.6%
9 | Cc1ccc(O)c(NC(=O)CCC2CCCCC2)c1 | 5.06%
10 | Cc1ccc(CC(=O)N2CCN(C(=O)C3CCCO3)CC2)cc1 (stereo not drawn) | 1.64%
11 | O=S(=O)(c1ccc(Cl)s1)N1CCN(Cc2ccccc2)CC1 | -19.5%
12 | COc1ccccc1Nc1nnc(SCC(=O)NC(=O)Nc2ccc3c(c2)OCCO3)s1 | -8.87%
13 | O=C(CC(NS(=O)(=O)c1ccc(Cl)cc1)c1ccco1)N1CCc2ccccc21 (stereo not drawn) | -14.8%
14 | Cc1ccc(C)c(NC(=O)/C(C#N)=C/c2ccc[nH]2)c1 | 8.28%
15 | COC(=O)Cc1c(O)ccn(CCc2c[nH]c3ccccc23)c1=O | 19.5%
16 | COc1cccc(-c2nnc(SCC(=O)N3CC(C)CC(C)C3)o2)c1 (stereo not drawn) | -39.5%
17 | Cc1ccc(-n2c(=S)[nH]c3c(oc4ccccc43)c2=O)cc1C | 12.8%
18 | CN(Cc1cccnc1)C(=O)CC1C(=O)NCCN1CC(c1ccccc1)c1ccccc1 (stereo not drawn) | -25.4%
19 | CCOC(=O)c1cnc(SC)nc1Oc1cccc(NS(=O)(=O)c2ccccc2)c1 | 16.1%

Row | Structure (SMILES) | hERG current change (%, negative = inhibition) at 10uM
20 | COc1ccc(CCNC(=O)C2CCN(C(=O)c3ccc(Cl)cc3)CC2)cc1OC | 2.77%
21 | Cc1cccc(CSc2nnc(-c3ccco3)o2)c1 | -14.7%
22 | O=C(NCCS(=O)(=O)NCc1ccc(F)cc1)c1ccccc1 | -12.2%
23 | COc1ccc(N(CC(=O)NN=C2CCCC2)S(=O)(=O)c2ccccc2)cc1 | -7.55%
24 | C#CCn1c(=NC(=O)c2ccccc2[N+](=O)[O-])sc2cc(S(C)(=O)=O)ccc21 | 12.6%
25 | O=C(CCCc1ccccc1)Nc1ccccc1C(F)(F)F | 20.3%
26 | O=C(NCC1CCCO1)C1CCCN1C(=O)Nc1ccccc1[N+](=O)[O-] (stereo not drawn) | -11.1%
27 | Cc1c(C)c2ccc(OC(C)C(=O)NCCCN3CCOCC3)c(C)c2oc1=O (stereo not drawn) | 12.4%
28 | COC(=O)c1ccc(C)c(NC(=O)CCSc2ccccc2)c1 | -5.69%
29 | COc1ccc(OC(C)c2nnc(N)s2)cc1 (stereo not drawn) | -71.4%
30 | CC(C)CCN1CCN(Cc2cccc3cccnc23)CC1CCO (stereo not drawn) | -26.2%
31 | N#Cc1cccc(-c2cn(S(=O)(=O)c3ccc(Cl)cc3)nc2N)c1 | 3.89%
32 | C=C(CC1([C@@H](NP(=O)(c2ccccc2)c2ccccc2)[C@H]2C[C@@H]2CCCC)CC1)c1ccccc1 | 7.72%
33 | Cn1c(=O)n(CC(=O)NCC2CCCO2)c(=O)c2c3c(sc21)CCCC3 (stereo not drawn) | 15.9%
34 | COc1ccc(C2=CC(=O)CCC2)cc1 | 2.67%
35 | CCOC(=O)C(C(=O)OCC)C1OC(=O)c2cc3c(cc21)C(=O)OC3C(C(=O)OCC)C(=O)OCC (stereo not drawn) | 12.6%
36 | CCNc1c(NC(=O)c2cccs2)c(=O)oc2ccccc12 | 5.32%
37 | COc1ccc(-c2noc(CNS(=O)(=O)c3ccc(NC(C)=O)cc3)n2)cc1OC | 10.8%
38 | COC(=O)CCCNC(=O)c1ccc(S(=O)(=O)NCc2ccco2)cc1 | -4.22%

Row | Structure (SMILES) | hERG current change (%, negative = inhibition) at 10uM
39 | CC1CCCCN1CC(O)COCCC12CC3CC(CC(C3)C1)C2.Cl (stereo not drawn) | -63.6%
40 | CCCCN(CC)C(=O)c1cc2cc3ccc(OC)cc3nc2o1 | -38.8%
41 | CCC(=O)N(C)C(c1ccccc1Cl)c1nnnn1-c1c(C)cccc1C (stereo not drawn) | 16.2%
42 | COc1ccc(NCC(=O)N/N=C/C2CCCCC2)cc1 | 1.05%
43 | Cc1ccccc1C(=O)NC(Oc1ccccc1)C(Cl)(Cl)Cl (stereo not drawn) | -25.4%
44 | Cc1cc(SCC(=O)c2ccccc2)n2nc(C)nc2n1 | 1.43%
45 | C=CCC1C=C(Cc2ccccc2)CC(CC=C)N1.Cl (stereo not drawn) | -22.7%
46 | CCn1c(C)nc2cc(C(=O)N=Nc3c(O)[nH]c4ccccc34)ccc21 | 1.1%
47 | Cc1ccc(S(=O)(=O)N2CCOCC2)cc1NC(=O)CSc1n[nH]c(N)n1 | 3.15%
48 | C=CCn1c(Sc2ncc([N+](=O)[O-])s2)n[nH]c1=O | -8.78%
49 | Cc1ccccc1NC(=S)N(CCCN1CCOCC1)Cc1cccs1 | -39.9%
50 | CCN(CC)C(=O)C1CCCN(C/C(C)=C/c2ccccc2)C1 (stereo not drawn) | -30.7%
51 | COc1ccc(C2OC(=O)Cc3cc(OC)c(OC)cc32)cc1 (stereo not drawn) | 25.8%
52 | Clc1ccc(-c2ccc(/C=N/Nc3cc(N4CCOCC4)nc(N4CCOCC4)n3)o2)cc1 | -2.8%
53 | C=C(C)c1cccc(C(C)(C)NC(=O)N2CCCC(C(N)=O)C2)c1 (stereo not drawn) | -5.02%
54 | O=C(CCS(=O)(=O)c1ccc(Cl)cc1)N1CCCc2ccccc21 | -0.368%
55 | O=c1cc[nH]c2c(Cl)cccc12 | 10%
56 | CCc1cccc(NC(=O)CN(C)S(=O)(=O)c2cccs2)c1 | -5.93%
57 | O=C(CSC(=S)N1CCCC1)N(Cc1nnc(-c2ccccc2Cl)o1)C1CC1 | -6.76%
